Measurements from the RNAGym collection of RNA variant scans (doi:10.1073/pnas.2313332121).
This sample is rich in variants without activity.

B1: TPR 5TU (parent)
chain: GGAUCUUCUCGAUCUAACAAAAAAGACAAAUCUGCCACAAAGCUUGAGAGCAUCUUCGGAUGCAGAGGCGGCAGCCUUCGGUGGCGCGAUAGCGCCAACGUUCUCAACUAUGACACGCAAAACGCGUGCUCCGUUGAAUGGAGUUUAUCAUG

Variants of: B1
Assay: polymerase ribozyme fitness, log enrichment relative to wild type (log ratio); higher = more active; in vitro selection for triplet polymerase activity
In short: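 The heterodimeric triplet polymerase ribozyme's subunits were each mutagenized into PCR-built libraries and transcribed. Every library was selected once, in triplicate, by annealing with a biotinylated primer, the partner subunit and triplets, incubating frozen at −7 °C, gel-excising extended constructs, capturing on streptavidin beads and running RT-PCR. Input and output libraries were Illumina-sequenced, with genotypes kept only at ≥10 input reads and ≥1 read per output. Fitness, from inverse-variance-weighted replicate averages, is the base-2 logarithm of genotype enrichment over wild-type enrichment.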

Variant	polymerase ribozyme fitness (log ratio)
C32U G50C U55A A89G G133C	≤ -4.2
C32A A40G G50A C93G U151C	≤ -4.2
U31G A39U C85G U102G	≤ -4.2
C32U C76A G83U G92C C114U C123A	≤ -4.2
U31G C32U A41G G48A U61A C108G G141A G143C	≤ -4.2
C32G U55A G81U C85G	≤ -4.2
C32A U44C A49U G94C C103G	≤ -4.2
U31C G65U C69U G86A U151A	≤ -4.2
C32A G86U A97G C105U U135G G140C	≤ -4.2
C32U G42A A60C A66G A73G C79A G84A C93U C96G A97U C103G	≤ -4.2
C32U C35U G50C U53A C96A C105U A119C U144G	≤ -4.2
U31C C32A G80C G81A A115C C118G G133A	≤ -4.2
U31G A52C A64U C75G U90C C99U U134G	≤ -4.2
C32U A40U C51U C57A C99A U111C	≤ -4.2
C32A C43U C57U C79U A89C G92U C103A U151C	≤ -4.2
U31C C76U C93G U102C U145G	≤ -4.2
C32G U53A C79U G140U	-4.06
C32A U61A C63G A66U U77G	≤ -4.2
U31G C69U U104C	≤ -4.2
U31G A60G G152U	-3.16
U31C U45A G59C C96A G140C U151A	≤ -4.2

Variant	polymerase ribozyme fitness (log ratio)
C32G C87G C93U C99G U104A C123U	≤ -4.2
C32A G83U A98G A120U A150C	≤ -4.2
C32A G86U	≤ -4.2
C32A C54A U109A C132G	≤ -4.2
C32G G92A U111G	-4.13
U31C C93G U104G A120U	≤ -4.2
C32G G50U C79G G88U G94C U101C C125A	≤ -4.2
C32G G42C A49U A107G	≤ -4.2
C32G G81C C87U G88U A91G A107C C114A G141C	≤ -4.2
C32A C43U C85U G92A A147C	≤ -4.2
U31G U56A G136A A147C	-0.143
C32G G65C A73G C76U A106G	≤ -4.2
U31C C32G A52U C85U A91U A119C U139G A150G	≤ -4.2
C32G G48A G68A C103A C114A U146A	≤ -4.2
C32G G59C U61A U82A G84U U134G G140C	≤ -4.2
U31C C54G C76U C79A A89G U127C	≤ -4.2
C32G A41U A52U A60U G94A C103G A110C G141U	≤ -4.2
U31G C54A G88A G126A G141A	≤ -4.2
C32A A52C A73G G81U C93G U111G	≤ -4.2
U31G A98G A138U	≤ -4.2
U31C A52C C87A C105U A121G U148A	≤ -4.2

Variant	polymerase ribozyme fitness (log ratio)
U31G A52C C93A C95G G117A C123U	≤ -4.2
C32G A41C C85U	≤ -4.2
C32A C54U G58C C85A C105G A113C G136U U139C	≤ -4.2
C32G U55G C79U C96G	-4.01
C32U G48C G59A G84U U127C	≤ -4.2
C32A C72G G92C A150C	≤ -4.2
C32A A39U C79A C85A C129G	≤ -4.2
C32U A49C G92U C99A A115G A147C	≤ -4.2
C32U G48C G59A C85G A106C G128A	≤ -4.2
C32G A49C U53A C85U G86U C99A A138G A150G	-4.03
C32U C36U U53A C72U G136A	≤ -4.2
C32G U56C U82C C114U G140A	≤ -4.2
U31G U77G C93U A137C	≤ -4.2
C32G U44A C96U U145A	≤ -4.2
C32G U53A C76A C99U	≤ -4.2
C32G A40C A49G A66G C72U A122U U130G	≤ -4.2
U31C U55A G67C G80A C85G	≤ -4.2
U31G G74A G81A U82G	≤ -4.2
C32G G42C A52C A107G A110G A138G	≤ -4.2
C32U A89U	-2.63
C32A A97U U127A	≤ -4.2

Variant	polymerase ribozyme fitness (log ratio)
C32A A37C A52G C75A C87G C105G A120U	≤ -4.2
U31G C75U U77C G94U G124A C125A	≤ -4.2
C32A A47C C51U C76A G81U G83A	≤ -4.2
C32G G42C A49U G94C C95A G126A	-3.97
U31G U33A A40C C96G A113C G124U U148A	≤ -4.2
C32U G59A G80A U90G G92A C125U G133A A138G G152A	≤ -4.2
C32U C54U	-1.22
U31G C79U G140A A150U	≤ -4.2
C32A G42U U77C A119G U148G	≤ -4.2
C32G G42A G50A A52C U53A U56A C85A A110U	≤ -4.2
C32G C87U	-3.63
C32U A49C A52G G58U G62C C131G	≤ -4.2
U31G C103G A106U	≤ -4.2
C32G A91C G117U A137U	≤ -4.2
U31C C76G C85U G133C C149A	≤ -4.2
U31G G62A C95U U104G C118U	≤ -4.2
C32A G46A U55A U90C C96U C105G A106U A113U A138G C149A	≤ -4.2
C32G A40U A60C C105G U135C	≤ -4.2
U31C G48C G67A C95U A142U U144C G152A	≤ -4.2
U31C C35U G68C G92U U104A A115U A119C G143A	≤ -4.2
